# Laboratory results as given in publication PMC7819943, “Rice protein-binding microarrays: a tool to detect cis-acting elements near promoter regions in rice”.
# The other results are listed elsewhere or left out.
# Target: T1, OsWOX13 (Oryza sativa, UniProt Q5QMM3 1-267)
# T1 sequence: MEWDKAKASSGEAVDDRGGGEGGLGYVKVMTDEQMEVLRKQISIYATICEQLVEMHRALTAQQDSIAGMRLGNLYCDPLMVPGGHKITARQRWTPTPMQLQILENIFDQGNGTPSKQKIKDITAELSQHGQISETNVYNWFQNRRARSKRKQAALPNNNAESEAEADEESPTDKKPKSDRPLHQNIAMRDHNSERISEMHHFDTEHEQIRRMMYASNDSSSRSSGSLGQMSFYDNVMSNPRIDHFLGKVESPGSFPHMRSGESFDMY
# Test: protein-binding microarray (RPBM); PBS, 2% BSA, 51.3 ng/ul salmon testes DNA, 50 uM zinc acetate, 200 nM TF, 25 C, 1 h; high values mean tight binding
# Conditions: protein: recombinant; tags: N-terminal polyhistidine and DsRed monomer fusion (pET32a); label: CyDye5-dUTP incorporated in the synthesized complementary strand; 3' TTTTT single-stranded linker to array surface; dsDNA, one strand shown
# Procedure, shortened: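 Binding signal is defined as the fluorescence intensity of each feature in arbitrary units, read on an Axon 4000B scanner. Transcription factors with N-terminal polyhistidine and DsRed fusions came from E. coli BL21-CodonPlus and were purified on Ni–NTA. They were incubated at 200 nM for 1 h at 25 °C on a custom Agilent array that had been made double-stranded with Cy5-dUTP, with 50 µM zinc acetate present, and the array was washed.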
row,Sequence,binding signal
1,ATAATGATGTGTTCTATTTAATTAGATCTACACTATGTTCCGGAGTCACCTAGTGCAG,14700 fluorescence intensity (a.u.)
2,AAATAAATTTGTTTTCAAGATTTATGTTCGTGCAAATGATCGGAGTCACCTAGTGCAG,8040 fluorescence intensity (a.u.)
3,GTTTTAAATTAATATATCTCGCGGAATATTAGAGCAAACGCGGAGTCACCTAGTGCAG,12600 fluorescence intensity (a.u.)
4,CCTAATTAAGAAGAAGATACACATCGAGAGGGCGTTCTCGCGGAGTCACCTAGTGCAG,11100 fluorescence intensity (a.u.)
5,TCGTATTTATGGCTAATTATTATTTCAGTGGTAGACGATTCGGAGTCACCTAGTGCAG,6670 fluorescence intensity (a.u.)
6,ATTGATTGTGTACGTTTTGCCCTTAATCCTTGTCAGCAGTCGGAGTCACCTAGTGCAG,31700 fluorescence intensity (a.u.)
7,CCCAAATCCCGGAAACGTGATTTGTAGGTCCTCAACTTAACGGAGTCACCTAGTGCAG,8960 fluorescence intensity (a.u.)
8,GTATTGATGTTAATGAATCTAGATAGATATATATGTCTAACGGAGTCACCTAGTGCAG,10700 fluorescence intensity (a.u.)
9,TGCAGATGATAATTGGAGAGCCTTGTTTAGTAATTCACATCGGAGTCACCTAGTGCAG,17000 fluorescence intensity (a.u.)
10,ATTATTAATTTAATAGTATTGTAGTGATTCAGAGTACTAGCGGAGTCACCTAGTGCAG,19200 fluorescence intensity (a.u.)
11,GCTCCAATTGGTGCATAATTACATGGAGATGCAAATAGTACGGAGTCACCTAGTGCAG,8440 fluorescence intensity (a.u.)
12,GAATGATGATGATTCATGATGTAAAGGTATCATCTTTATTCGGAGTCACCTAGTGCAG,5190 fluorescence intensity (a.u.)
13,GATCATTAGGTCAATCACATAACAGAATGCAGACATTAAGCGGAGTCACCTAGTGCAG,20800 fluorescence intensity (a.u.)
14,ATAAGATATATTATTTGGTAATTATTTTAGGTCCGAATTTCGGAGTCACCTAGTGCAG,4020 fluorescence intensity (a.u.)
15,CATAATTGCACGATCATTGATTTTGGAACATTCTGAGGCTCGGAGTCACCTAGTGCAG,57100 fluorescence intensity (a.u.)
16,ACAACCTAGAATTACACGATTAATTTAGGACGGATGTAGTCGGAGTCACCTAGTGCAG,4080 fluorescence intensity (a.u.)
17,CAGTTAATTTAGGCTATTTTGGCTTCAATCCAAACATAATCGGAGTCACCTAGTGCAG,13200 fluorescence intensity (a.u.)
18,ATAGATTGTCCAGATAGACTATGGGCCTGTTTAAGGGAGCCGGAGTCACCTAGTGCAG,22800 fluorescence intensity (a.u.)
19,ATAATAGATAGATAGATAATGCATCAAATAAACACTCATACGGAGTCACCTAGTGCAG,27700 fluorescence intensity (a.u.)
20,ATGAAATGATTTGATTGAAATATTATGAAATGATTTGAGACGGAGTCACCTAGTGCAG,39500 fluorescence intensity (a.u.)
21,ACCATGATGGCATTAATGAACAATCAGGAATTCAGAATACCGGAGTCACCTAGTGCAG,20300 fluorescence intensity (a.u.)
22,TCTATGATTTAAAATCCCATAGGAACCCAATGAGTATGATCGGAGTCACCTAGTGCAG,11700 fluorescence intensity (a.u.)
23,GCATGATCAGCGCATAAATTTAATTTCCATCGATCTAGAACGGAGTCACCTAGTGCAG,5900 fluorescence intensity (a.u.)
